Source: paper PMC3395220 (Journal of Medicinal Chemistry, 2012)

Tests used:
MALME-3M = assay type: cell-based, human; conditions: 10^Δ2-x, relative to compound 2
NCI-H322M = assay type: cell-based, human; conditions: 10^Δ2-x, relative to compound 2

SMILES | activity improvement factor (MALME-3M) | activity improvement factor (NCI-H322M; […]) | activity improvement factor (NCI-H322M; NCI-H322M)
CO[C@@H]([C@@H]1Cc2cc3cc(O[C@H]4C[C@@H](O[C@H]5C[C@@H](O)[C@H](O)[C@@H](C)O5)[C@H](O)[C@@H](C)O4)c(C)c(O)c3c(O)c2C(=O)[C@H]1O[C@H]1C[C@@H](O[C@H]2C[C@@H](O[C@H]3C[C@H](O)[C@H](O)[C@@H](C)O3)[C@H](O)[C@@H](C)O2)[C@H](O)[C@@H](C)O1)[C@@H](O)C(C)=O [Compound 9, demycarosyl-3D-β-D-digitoxosyl-mithramycin SK] | 1.23 | 2.43 | –
CO[C@H](C(=O)C(C)=O)[C@@H]1Cc2cc3cc(O[C@H]4C[C@@H](O[C@H]5C[C@@H](O)[C@H](O)[C@@H](C)O5)[C@H](O)[C@@H](C)O4)c(C)c(O)c3c(O)c2C(=O)[C@H]1O[C@H]1C[C@@H](O[C@H]2C[C@@H](O[C@H]3C[C@H](O)[C@H](O)[C@@H](C)O3)[C@H](O)[C@@H](C)O2)[C@H](O)[C@@H](C)O1 [Compound 11, demycarosyl-3D-β-D-digitoxosyl-mithramycin SDK] | 0.69 | – | 3.63

Where two headings read alike, the source gives them in different places.
